Assay results reported in patent CN113667016A (PUMISI BIOTECHNOLOGY ZHUHAI CO LTD, dated 2021).

B1: 89C8-23-F1 (other)
heavy: QVQLVQSGAEVKKPGSSVKVSCKASGGTFSSYAISWVRQAPGQGLEWMGGIIPILGIANYAQKFQGRVTITADKSTSTAYMELSSLRSEDTAVYYCARGGLGFGELFRKTGYYFDYWGQGTLVTVSSASTKGPSVFPLAPSSKSTSGGTAALGCLVKDYFPEPVTVSWNSGALTSGVHTFPAVLQSSGLYSLSSVVTVPSSSLGTQTYICNVNHKPSNTKVDKKV[letters of human IgG1 Fc with changes not shown]GGGGSGGGGSGGGGSGGGGSGEQAKTFLDKFNHEAEDLFYQS
light: EIVMTQSPATLSVSPGERATLSCRASQSVSSNLAWYQQKPGQAPRLLIYAASTRATAIPARFSGSGSGTEFTLTISSLQSEDFAVYFCQQYNKLPLTFGGGTKVDIKRTVAARTVAAPSVFIFPPSDEQLKSGTASVVCLLNNFYPREAKVQWKVDNALQSGNSQESVTEQDSKDSTYSLSSTLTLSKADYEKHKVYACEVTHQGLSSPVTKSFNRGEC
B2: 89C8-23-F2 (other)
heavy: QVQLVQSGAEVKKPGSSVKVSCKASGGTFSSYAISWVRQAPGQGLEWMGGIIPILGIANYAQKFQGRVTITADKSTSTAYMELSSLRSEDTAVYYCARGGLGFGELFRKTGYYFDYWGQGTLVTVSSASTKGPSVFPLAPSSKSTSGGTAALGCLVKDYFPEPVTVSWNSGALTSGVHTFPAVLQSSGLYSLSSVVTVPSSSLGTQTYICNVNHKPSNTKVDKKV[letters of human IgG1 Fc with changes not shown]GGGGSGGGGSGGGGSGGGGSGEQAKTFLDKFNHEAEDLFYQS
light: EQAKTFLDKFNHEAEDLFYQSGGGGSGGGGSGGGGSGGGGSGEIVMTQSPATLSVSPGERATLSCRASQSVSSNLAWYQQKPGQAPRLLIYAASTRATAIPARFSGSGSGTEFTLTISSLQSEDFAVYFCQQYNKLPLTFGGGTKVDIKRTVAARTVAAPSVFIFPPSDEQLKSGTASVVCLLNNFYPREAKVQWKVDNALQSGNSQESVTEQDSKDSTYSLSSTLTLSKADYEKHKVYACEVTHQGLSSPVTKSFNRGEC
B3: 89C8-23-F3 (other)
heavy: QVQLVQSGAEVKKPGSSVKVSCKASGGTFSSYAISWVRQAPGQGLEWMGGIIPILGIANYAQKFQGRVTITADKSTSTAYMELSSLRSEDTAVYYCARGGLGFGELFRKTGYYFDYWGQGTLVTVSSASTKGPSVFPLAPSSKSTSGGTAALGCLVKDYFPEPVTVSWNSGALTSGVHTFPAVLQSSGLYSLSSVVTVPSSSLGTQTYICNVNHKPSNTKVDKKV[letters of human IgG1 Fc with changes not shown]
light: B2 light

Each binder was assayed against S1-His (SARS-CoV-2).
In the case of B1, the Kd is reported as 11 nM, the koff is reported as 0.000432 s⁻¹ and the kon is reported as 39300 M⁻¹ s⁻¹. With B2 the Kd was 33 nM, the koff was 0.000786 s⁻¹ and the kon was 24100 M⁻¹ s⁻¹. In the case of B3, the Kd is reported as 34 nM, the koff is reported as 0.000867 s⁻¹ and the kon is reported as 25300 M⁻¹ s⁻¹.
